Results: publication PMC5679390
No constants are given. Whether binding was seen depends on the method and setting. In cells and extracts the contact can be indirect. Some binding calls cover weakened binding; strength is not graded here. For some assays here: Sequences can lack the tags named with a protein.

By UniProt entry, the sequences of proteins in these tests, tags left out. Where a name states a change or a piece, a line headed by the entry shows the natural chain unless it says otherwise.
UniProt Q8GXX0: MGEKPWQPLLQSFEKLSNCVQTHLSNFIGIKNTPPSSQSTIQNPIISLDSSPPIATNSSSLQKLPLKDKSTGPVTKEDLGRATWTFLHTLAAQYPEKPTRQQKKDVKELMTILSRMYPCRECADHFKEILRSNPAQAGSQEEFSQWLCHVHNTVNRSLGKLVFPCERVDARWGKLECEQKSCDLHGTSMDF

T1: yeast Mia40 (S. cerevisiae (endogenous in yeast mitochondria)) (UniProt P36046)
T1 sequence: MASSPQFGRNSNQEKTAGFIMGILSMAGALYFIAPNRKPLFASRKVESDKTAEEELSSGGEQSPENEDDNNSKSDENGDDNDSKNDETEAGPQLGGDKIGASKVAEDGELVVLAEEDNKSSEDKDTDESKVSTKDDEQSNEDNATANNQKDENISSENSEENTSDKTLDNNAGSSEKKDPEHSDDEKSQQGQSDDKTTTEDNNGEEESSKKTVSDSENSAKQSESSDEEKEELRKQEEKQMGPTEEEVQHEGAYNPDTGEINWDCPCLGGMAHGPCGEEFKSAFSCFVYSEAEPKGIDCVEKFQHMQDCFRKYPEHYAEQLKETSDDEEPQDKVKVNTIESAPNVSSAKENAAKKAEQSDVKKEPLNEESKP

T2: Arabidopsis thaliana Erv1 fused to the IMS-targeting sequence of cytochrome b2 followed by a hemagglutinin tag (not stated | Arabidopsis thaliana) (UniProt P00175+Q8GXX0)
T2 sequence: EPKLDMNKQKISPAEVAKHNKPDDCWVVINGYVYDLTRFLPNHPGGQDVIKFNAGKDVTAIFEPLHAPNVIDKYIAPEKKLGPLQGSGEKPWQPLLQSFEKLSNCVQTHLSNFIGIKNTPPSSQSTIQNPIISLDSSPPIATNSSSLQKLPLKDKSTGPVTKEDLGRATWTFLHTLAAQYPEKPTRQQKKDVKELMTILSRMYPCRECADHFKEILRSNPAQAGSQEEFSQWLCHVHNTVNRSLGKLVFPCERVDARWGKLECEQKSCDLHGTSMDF

T3: yeast Erv1 (yeast (S. cerevisiae)) (UniProt P27882)
T3 sequence: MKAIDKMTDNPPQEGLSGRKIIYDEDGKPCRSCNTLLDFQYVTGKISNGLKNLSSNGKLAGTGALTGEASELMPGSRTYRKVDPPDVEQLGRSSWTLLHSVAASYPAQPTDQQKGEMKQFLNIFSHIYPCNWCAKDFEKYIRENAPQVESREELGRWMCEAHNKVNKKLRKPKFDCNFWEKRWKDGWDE


Columns and labels:
[1] = molecular target: T1, yeast Mia40 (S. cerevisiae (endogenous in yeast mitochondria)); assay: cross-linking + co-IP; mitochondria of the AtErv1-expressing Δerv1 strain treated with 1 mM cleavable cross-linker dithiobis succinimidyl propionate for 15 min at 25 °C, lysed with 1% SDS; immunoprecipitation with Mia40-specific antibodies or pre-immune serum; HA-tagged AtErv1 seen by western blotting
[2] = molecular target: T2, Arabidopsis thaliana Erv1 fused to the IMS-targeting sequence of cytochrome b2 followed by a hemagglutinin tag (not stated | Arabidopsis thaliana); assay: cross-linking + co-IP; radiolabeled Tim9 or Tim17 incubated for 2 min with Δerv1 mitochondria containing ScErv1 or AtErv1; 400 μM dithiobis succinimidyl propionate for 5 min at 25 °C, NEM-containing buffer for 20 min on ice, lysed with 1% SDS; immunoprecipitation with Erv1-specific antibodies or pre-immune serum; disulfide bonds reduced with DTT; autoradiography
[3] = molecular target: T3, yeast Erv1 (yeast (S. cerevisiae)); assay: as above
[4] = molecular target: T2, Arabidopsis thaliana Erv1 fused to the IMS-targeting sequence of cytochrome b2 followed by a hemagglutinin tag (not stated | Arabidopsis thaliana); assay: cross-linking + co-IP; radiolabeled CCMH incubated for 2 min with mitochondria of the AtErv1-expressing Δerv1 strain; 400 μM dithiobis succinimidyl propionate for 5 min at 25 °C, lysed with 1% SDS; immunoprecipitation with Erv1- and HA-specific antibodies (Fig. 5a) or Mia40-specific antibodies (Figure S5) or pre-immune serum; cross-linker cleaved with DTT when indicated; autoradiography
[5] = molecular target: T1, yeast Mia40 (S. cerevisiae (endogenous in yeast mitochondria)); assay: as above
[6] = molecular target: T2, Arabidopsis thaliana Erv1 fused to the IMS-targeting sequence of cytochrome b2 followed by a hemagglutinin tag (not stated | Arabidopsis thaliana); assay: co-IP; radiolabeled Mia40 incubated for 2 min with isolated erv1-ts mitochondria containing or lacking HA-tagged AtErv1; lysed with 1% SDS; immunoprecipitation with HA-specific antibodies or pre-immune serum; disulfide bonds reduced with DTT when indicated; autoradiography

binding [2] | binding [3] | Binder | other results
binds | binds weakly | Tim9 (protein, UniProt O74700 1-87, radiolabeled) MDALNSKEQQEFQKVVEQKQMKDFMRLYSNLVERCFTDCVNDFTTSKLTNKEQTCIMKCSEKFLKHSERVGQRFQEQNAALGQGLGR | 
binds | binds weakly | Tim17 (protein, UniProt P39515 1-158, radiolabeled) MSADHSRDPCPIVILNDFGGAFAMGAIGGVVWHGIKGFRNSPLGERGSGAMSAIKARAPVLGGNFGVWGGLFSTFDCAVKAVRKREDPWNAIIAGFFTGGALAVRGGWRHTRNSSITCACLLGVIEGVGLMFQRYAAWQAKPMAPPLPEAPSSQPLQA | 

The remaining lines, values behind:

Binder | binding [2] | binding [3] | other results
Arabidopsis thaliana Erv1 fused to the IMS-targeting sequence of cytochrome b2 followed by a hemagglutinin tag (enzyme, UniProt P00175 81-167; Q8GXX0 2-191) EPKLDMNKQKISPAEVAKHNKPDDCWVVINGYVYDLTRFLPNHPGGQDVIKFNAGKDVTAIFEPLHAPNVIDKYIAPEKKLGPLQGSGEKPWQPLLQSFEKLSNCVQTHLSNFIGIKNTPPSSQSTIQNPIISLDSSPPIATNSSSLQKLPLKDKSTGPVTKEDLGRATWTFLHTLAAQYPEKPTRQQKKDVKELMTILSRMYPCRECADHFKEILRSNPAQAGSQEEFSQWLCHVHNTVNRSLGKLVFPCERVDARWGKLECEQKSCDLHGTSMDF |  |  | binding [1]: binds
Arabidopsis thaliana CCMH (protein, UniProt Q9XI46 1-159, radiolabeled) MEKTDEERKKAQMLDARARNISHNVRCTECGSQSIEDSQADIAILLRQLIRNEIGAGKTDKEIYSKLEDEFGETVLYAPKFDLQTAALWLTPVIIAGGTAAGIVYQKHRLRKNVDIMALNLIRGVPLTPKERVTILDVLIPPSPPPQGVVSRLRRWLNR |  |  | binding [4]: binds; binding [5]: no binding
radiolabeled Mia40 (protein, UniProt P36046 1-403, radiolabeled) MLRNLVVRNACRNRPSIQVARGLCRHQTRRLMASSPQFGRNSNQEKTAGFIMGILSMAGALYFIAPNRKPLFASRKVESDKTAEEELSSGGEQSPENEDDNNSKSDENGDDNDSKNDETEAGPQLGGDKIGASKVAEDGELVVLAEEDNKSSEDKDTDESKVSTKDDEQSNEDNATANNQKDENISSENSEENTSDKTLDNNAGSSEKKDPEHSDDEKSQQGQSDDKTTTEDNNGEEESSKKTVSDSENSAKQSESSDEEKEELRKQEEKQMGPTEEEVQHEGAYNPDTGEINWDCPCLGGMAHGPCGEEFKSAFSCFVYSEAEPKGIDCVEKFQHMQDCFRKYPEHYAEQLKETSDDEEPQDKVKVNTIESAPNVSSAKENAAKKAEQSDVKKEPLNEESKP |  |  | binding [6]: binds
